Data as given in PubChem BioAssay AID1963576 (National Center for Advancing Translational Sciences (NCATS), 2024).
Hit rate of the full screen: of about 46,000 compounds, about 60 (0.1%) were called active. Not shown: some 3% with an inconclusive outcome. Calls follow the shape of the dose curve; as a rule, active = well fitted inhibition curve with a large enough effect; inconclusive = small, poorly fitted or top-dose-only effect; inactive = no such curve, though single readings can be large or run the other way. The list shows a part of the results.

Assay: Primary qHTS assay for Inhibitors of ovarian cancer metastasis using an organotypic tumor microenvironment (TME) model. Also: nearly all actives have a fitted effect of over 65% in size.
Details: SKOV3ip1-GFP adhesion/invasion on 3D omental model, fluorescence; series mostly up to 45.8 µM; activity change, negative = inhibition: at the top concentration
Text: PI: Ernst Lengyel MD., Ph.D. Department of Obstetrics and Gynecology, Section of Gynecologic Oncology University of Chicago Medicine, Chicago, Illinois. The tumor microenvironment (TME) is a key determinant of metastatic efficiency. We performed a quantitative high-throughput screen (qHTS) of diverse medicinal chemistry tractable scaffolds (44,420 compounds) and pharmacologically active small molecules (386 compounds) using a layered organotypic, robust assay representing the ovarian cancer metastatic TME. This 3D model contains primary human mesothelial cells, fibroblasts, and extracellular matrix, to which fluorescently labeled ovarian cancer cells are added. Initially, 100 compounds inhibiting ovarian cancer adhesion/invasion to the 3D model in a dose-dependent manner were identified. Of those, eight compounds were confirmed active in five high-grade serous ovarian cancer cell lines and were further validated in secondary in vitro and in vivo biological assays. […] Specifically, NCGC00117362 and PP-121 inhibited ovarian cancer adhesion, invasion, and proliferation, whereas milciclib inhibited ovarian cancer invasion and proliferation. […] To evaluate the clinical potential of NCGC00117362, structure - activity relationship studies were performed. […] The three compounds identified have promise as therapeutics for prevention and treatment of ovarian cancer metastasis.
PROTOCOL TABLE (as described by Inglese J, Shamu CE and Guy RK. 2007) SEQUENCE No. (e.g., 1, 2, 3, etc.); […] (e.g., Cells, Incubation, Reagent, etc.); VALUE; DESCRIPTION. 1; Cells; 4 uL; primary human omental fibroblast, black, clear bottom, low base, 1536-well Aurora assay plate. 2; Incubation; 48 hr; 37C. 3; Cells; 3 uL; 1,200 SKOV3ip1-GFP cells. 4; Compounds; 23nL; acoustic dispenser. 5; Incubation; 2 hr; room temperature. 6; Incubation; 16 hr; 37C. 7; Wash; 5 uL; 1x PBS. 8; Fixing; 5 uL; 4% paraformaldehyde (PFA). 9; Incubation; 15 min; room temperature 10; Wash, 5 uL; 1x PBS. 11; Detection; Fluorescence, excitation filter 488 nm, emission filter 509 nm. NOTES (numbers refer to Sequence numbers above) 1. For the 1,536-well format, 40 primary human omental fibroblasts and 400 mesothelial cells were seeded with 0.02 µg fibronectin and 0.02 µg collagen type I in 4 µL of growth media (2.3 mm2; Supplementary Fig. S1A). 2. Assay plates were incubated for 48 hours at 37 C. 3. After incubation, 1,200 SKOV3ip1-GFP were seeded in 3 µL of serum-free media (growth media minus FBS) on top of primary human omental cells. 4. Compounds or controls were added to each well immediately after the addition of the cancer cells. Compounds were screened in four doses (0.36-46 µmol/L), and the plates contained the positive control (Tomatine) in eight doses (0.035-75 µmol/L) and DMSO (equal volume controls) 5 - 6. The plates were incubated at room temperature for 2 hours and then at 37 degrees C for 16 hours. 7 - 10. Following incubation, the media were aspirated and each well washed with PBS (5 µL) and then fixed with 4% paraformaldehyde (PFA; 5 µL). After 15 minutes, the PFA solution was aspirated, PBS (5 µL) was added. 11. The number of GFP-labeled cells analyzed using a fluorescent cytometer TTP LabTech Acumen eX3 using 488 nm excitation filter and 509 nm emission filter. Data was normalized to the DMSO treated for negative and Tomatine treated wells for positive control. REFERENCES: Inglese J, Shamu CE and Guy RK, Reporting data from high throughput screening of small molecule libraries, Nature Chemical Biology, 2007, 3(8): 438-441. doi.org/10.1038/nchembio0807-438. Yasgar A, Shinn P, Jadhav A, Auld DS, Michael S, Zheng W, Austin CP, Inglese J and Simeonov A, Compound Management for Quantitative High-Throughput Screening. J. Assoc. Lab. Auto., 2008, 13: 79-89. doi: 10.1016/j.jala.2007.12.004.

| Structure (SMILES) | outcome | activity change, negative = inhibition |
| --- | --- | --- |
| CCN(CC)c1nn2c(=O)c(C(=O)NCCc3ccccc3)cnc2s1 | inactive |  |
| Cc1cc2c(cc1S(=O)(=O)NCc1ccccc1Cl)OCCN2C |  | inactive: 6.97% |
| O=C(NCc1ccc(F)cc1)c1ccc2c(Cl)c3c(nc2c1)CCCC3 |  | inactive: 5.77% |
| COc1ccc(S(=O)(=O)N2CCN(c3ccccc3F)CC2)cc1-c1noc(C)n1 |  | inactive: -0.639% |
| Fc1ccc(-c2noc3ncnc(N4CCN(c5ccccc5)CC4)c23)cc1 | inactive |  |
| CCOC(=O)c1c(-c2ccccc2)oc2ccc(N(C(C)=O)S(=O)(=O)c3cc(C)ccc3C)cc12 |  | inactive: 13.7% |
| Cc1cc(C)cc(NC(=O)N2CCC(N3CCCCC3)CC2)c1 |  | inactive: 2.58% |
| CCOC(=O)c1[nH]c(C)c(CCC(=O)NCc2ccccc2)c1C |  | inactive: 9.38% |
| COc1ccc(OC)c(NC(=O)Cc2coc3ccc(C(C)C)cc23)c1 |  | inactive: -28.3% |
| COc1ccc(NC(=O)C2CCN(S(=O)(=O)c3ccc4[nH]c(=O)ccc4c3)CC2)c(OC)c1 |  | inactive: 7.77% |
| Cc1cn2c(=O)cc(COc3cccc(NC(=O)c4ccccc4C)c3)nc2s1 |  | inactive: 8.62% |
| CC(=O)N1CCOc2cc(S(=O)(=O)Nc3cccc(C(F)(F)F)c3)c(Cl)cc21 |  | inactive: 3.96% |
| CCc1cccc(-n2c(C)nc3c(cnn3-c3ccc(Cl)cc3)c2=O)c1 |  | inactive: -27.6% |
| CCOC(=O)c1ccccc1NC(=O)C(=O)Nc1ccc2nc3n(c(=O)c2c1)CCCCC3 |  | inactive: -5.64% |
| CCc1c(C)nc(SCC(=O)N2CCN(c3ccccc3OC)CC2)[nH]c1=O |  | inactive: -12.3% |
| CCOc1ccc(CNC(=O)C2CCN(c3nnc(-n4cccc4CNc4ccc(C)cc4)s3)CC2)cc1OC |  | inactive: -5.32% |
| Cc1ccc(CCNC(=O)c2ccc3c(c2)N(Cc2cccc(C)c2)C(=O)c2ccccc2S3(=O)=O)cc1 | inactive |  |
| CC(C)c1ccc(NC(=O)c2cc3c(s2)-c2ccccc2SC3)cc1 | inactive |  |
| Cc1cccc(-c2nc(S(=O)(=O)c3ccc(F)cc3)c(N3CCN(c4ccccc4)CC3)o2)c1 |  | inactive: 5.46% |
| CCOC(=O)c1c(C)[nH]c(CCC(=O)NCCCN2CCN(c3ccc(F)cc3)CC2)c1C |  | inactive: 0.229% |
| CCOC(=O)c1ccccc1NC(=O)Cn1cc(C(=O)c2cccc(OC)c2)c(=O)c2ccc(C)nc21 |  | inactive: 2.73% |
| COc1cc2c(cc1OC)C(COc1ccccc1OC)N(C(=O)CC(C)C)CC2 (configuration not stated) |  | inactive: -8.36% |
| CCc1ccc(N=C2NC(=O)CC(C(=O)Nc3ccc(OC)cc3)S2)cc1 (configuration not stated) |  | inactive: -1.39% |
| O=C(CN1C(=O)COc2ccc(S(=O)(=O)N3CCCCCC3)cc21)NCc1ccc(Cl)cc1 |  | inactive: -0.384% |

| Structure (SMILES) | outcome | activity change, negative = inhibition |
| --- | --- | --- |
| Cc1cc(=O)[nH]c2nnc(SCC(=O)NC(C)(C)C)n12 |  | inactive: -5.52% |
| CCc1c(C)sc2c1CCN(Cc1cccc(F)c1)C2c1ccccc1 (configuration not stated) |  | inactive: 21.1% |
| CCc1ccc(-c2cn3c(n2)sc2cc(C(=O)NC4CCCCCC4)ccc23)cc1 |  | inactive: 1.38% |
| CC(=O)N1CCc2cc(CNS(=O)(=O)c3ccc(F)cc3)ccc21 |  | inactive: -10.9% |
| Cc1ccc(S(=O)(=O)c2nc(-c3ccccc3F)oc2N2CCCCC2)cc1 |  | inactive: -1.93% |
| Cc1ccc(-c2cc(C(=O)NCc3cnn(C)c3C)c3cc(Br)ccc3n2)cc1 |  | inactive: 8.78% |
| Cc1ccc(NC2=C(c3ccc(C(F)(F)F)cc3)C(=O)c3ccccc32)cc1C |  | inactive: -1.39% |
| CC(=O)Nc1ccc(C(=O)CSc2nnc(-c3ccccc3)n2-c2ccccc2)cc1 |  | inactive: -3.35% |
| COCCc1nn2c(=O)cc(COC(=O)c3ccc4c(c3)OCO4)nc2s1 | inactive |  |
| COc1ccc(CCN2C(=O)c3oc4cc(C)cc(C)c4c(=O)c3C2c2ccc(F)cc2)cc1OC (configuration not stated) |  | inactive: 3.66% |
| COc1ccccc1N1CCN(C(=O)c2ccc(CS(=O)c3ccccc3C)o2)CC1 (configuration not stated) |  | inactive: 10.3% |
| O=C(NCC(c1cccnc1)N1CCc2ccccc2C1)c1ccc(F)c(F)c1 (configuration not stated) |  | inactive: 8.86% |
| O=C(Nc1ccc(Cl)cc1)C1CCN(c2nc3ccccc3nc2C(F)(F)F)CC1 |  | inactive: -14.8% |
| O=C(NC1CC1)c1ccc(Cn2c(SCc3cccc(F)c3)nc3cccnc32)cc1 |  | inactive: -3.78% |
| Cn1cc(S(=O)(=O)c2cccc(Cl)c2)c(=O)c2cc(F)c(N3CCCCCC3)cc21 |  | inactive: -6.03% |
| CCS(=O)(=O)N1CCc2cc(C(=O)NCc3ccc(OC)cc3)ccc21 | inactive |  |
| Cc1ccc(C)c(N2CCN(C(=O)C3CCN(c4nc(-c5ccc(C(C)C)cc5)no4)CC3)CC2)c1 | inactive |  |
| Cc1ccc(C(=O)N2CCc3cc(CNS(=O)(=O)c4ccc(Cl)s4)ccc32)cc1 |  | inactive: -1.66% |
| CCOc1ccc(NC(=O)c2ccc3c(SCC(=O)O)c4c(nc3c2)CCCC4)cc1 |  | inactive: 40% |
| CC1=C(C(=O)Nc2ccc(C)cc2C)C(c2ccccc2[N+](=O)[O-])n2ncc(C(=O)Nc3ccccc3)c2N1 (configuration not stated) |  | inactive: -31.7% |
| CCOC(=O)C1CCCN(C(=O)c2ccc3c(c2)N(Cc2ccccc2)C(=O)c2ccccc2S3(=O)=O)C1 (configuration not stated) |  | inactive: -3.76% |
| CC(C(=O)Nc1cccc(C#N)c1)n1nc(-c2ccccc2)c2c(c1=O)CCCC2 (configuration not stated) | inactive |  |
| Fc1ccc(-c2nc(Nc3ccc(F)c(Cl)c3)nc3c2COc2ccccc2-3)cc1 |  | inactive: 11.6% |
